# From article PMC12820563, “FoxP3 forms a head-to-head dimer in vivo and stabilizes its multimerization on adjacent microsatellites”
# The list shows a part of the results.
# Target: T1, MBP-FoxP1dN (Mus musculus, UniProt P58462 326-579)
# T1 sequence: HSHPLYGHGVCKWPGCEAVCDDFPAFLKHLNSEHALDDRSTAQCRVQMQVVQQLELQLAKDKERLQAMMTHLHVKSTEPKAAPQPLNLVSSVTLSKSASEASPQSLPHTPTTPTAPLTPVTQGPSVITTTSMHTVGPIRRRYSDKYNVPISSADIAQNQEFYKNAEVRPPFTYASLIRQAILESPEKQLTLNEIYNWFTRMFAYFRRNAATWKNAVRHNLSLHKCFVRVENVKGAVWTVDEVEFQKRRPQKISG
# Assay: PD-seq (MBP pull-down with sequencing); 20 mM Tris-HCl pH 7.5, 100 mM NaCl, 1.5 mM MgCl2, 0.4 uM protein, 0.1 uM dsDNA library, 30 min, room temperature, amylose pull-down; high values mean tight binding
# Details: protein: recombinant; tags: His6-MBP; chain copies: 2; dsDNA, one strand shown
# In short: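 Binding is the reads-per-million enrichment of pull-down relative to input, pooled across replicates. For this, 0.4 µM His6-MBP-tagged mouse FoxP3 or FoxP1 fragment lacking the N-terminus, made in E. coli, was incubated with 0.1 µM Klenow-filled double-stranded degenerate DNA library for 30 min at room temperature in Tris pH 7.5 buffer with NaCl and MgCl2. Complexes bound to amylose resin were washed three times before proteinase K released the DNA for PCR barcoding and Illumina sequencing.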
row,Sequence,binding signal
1,GATGATTGTTCTCCCAGCTGATGAATTGTCCGTCTCGAGTAAACAAATTTTCCTAATCTTTCTGTTCAAGCGCCATCTAC,0.872 RPM ratio (pull-down/input)
2,GATGATTGTTCTCCCAGCTGATGAATTAGAGCTCTCGAGTAAACAAATTTTCCTAATCTTTCTGTTCAAGCGCCATCTAC,0.834 RPM ratio (pull-down/input)
3,GATGATTGTTCTCCCAGCTGATGAATTACTTATGTCGAGTAAACAAATTTTCCTAATCTTTCTGTTCAAGCGCCATCTAC,1.31 RPM ratio (pull-down/input)
4,GATGATTGTTCTCCCAGCTGATGAATTCCACCACTCGAGTAAACAAATTTTCCTAATCTTTCTGTTCAAGCGCCATCTAC,0.844 RPM ratio (pull-down/input)
5,GATGATTGTTCTCCCAGCTGATGAATTAAAACGCTCGAGTAAACAAATTTTCCTAATCTTTCTGTTCAAGCGCCATCTAC,0.985 RPM ratio (pull-down/input)
6,GATGATTGTTCTCCCAGCTGATGAATTTATTACATCGAGTAAACAAATTTTCCTAATCTTTCTGTTCAAGCGCCATCTAC,1.21 RPM ratio (pull-down/input)
7,GATGATTGTTCTCCCAGCTGATGAATTTTACTCGTCGAGTAAACAAATTTTCCTAATCTTTCTGTTCAAGCGCCATCTAC,0.785 RPM ratio (pull-down/input)
8,GATGATTGTTCTCCCAGCTGATGAATTTCTCAGTTCGAGTAAACAAATTTTCCTAATCTTTCTGTTCAAGCGCCATCTAC,0.777 RPM ratio (pull-down/input)
9,GATGATTGTTCTCCCAGCTGATGAATTCCAAGGATCGAGTAAACAAATTTTCCTAATCTTTCTGTTCAAGCGCCATCTAC,0.795 RPM ratio (pull-down/input)
10,GATGATTGTTCTCCCAGCTGATGAATTACCGGACTCGAGTAAACAAATTTTCCTAATCTTTCTGTTCAAGCGCCATCTAC,0.873 RPM ratio (pull-down/input)
11,GATGATTGTTCTCCCAGCTGATGAATTCAGAGGTTCGAGTAAACAAATTTTCCTAATCTTTCTGTTCAAGCGCCATCTAC,0.772 RPM ratio (pull-down/input)
12,GATGATTGTTCTCCCAGCTGATGAATTACAATGATCGAGTAAACAAATTTTCCTAATCTTTCTGTTCAAGCGCCATCTAC,1.33 RPM ratio (pull-down/input)
13,GATGATTGTTCTCCCAGCTGATGAATTCTTAATATCGAGTAAACAAATTTTCCTAATCTTTCTGTTCAAGCGCCATCTAC,1.08 RPM ratio (pull-down/input)
14,GATGATTGTTCTCCCAGCTGATGAATTAGAGGTTTCGAGTAAACAAATTTTCCTAATCTTTCTGTTCAAGCGCCATCTAC,0.899 RPM ratio (pull-down/input)
15,GATGATTGTTCTCCCAGCTGATGAATTCAAATACTCGAGTAAACAAATTTTCCTAATCTTTCTGTTCAAGCGCCATCTAC,1.01 RPM ratio (pull-down/input)
16,GATGATTGTTCTCCCAGCTGATGAATTGCTGCCATCGAGTAAACAAATTTTCCTAATCTTTCTGTTCAAGCGCCATCTAC,1.08 RPM ratio (pull-down/input)
17,GATGATTGTTCTCCCAGCTGATGAATTGACTGACTCGAGTAAACAAATTTTCCTAATCTTTCTGTTCAAGCGCCATCTAC,0.978 RPM ratio (pull-down/input)
18,GATGATTGTTCTCCCAGCTGATGAATTAGAAAGATCGAGTAAACAAATTTTCCTAATCTTTCTGTTCAAGCGCCATCTAC,0.82 RPM ratio (pull-down/input)
19,GATGATTGTTCTCCCAGCTGATGAATTTAACAAGTCGAGTAAACAAATTTTCCTAATCTTTCTGTTCAAGCGCCATCTAC,0.884 RPM ratio (pull-down/input)
20,GATGATTGTTCTCCCAGCTGATGAATTTGTCAGATCGAGTAAACAAATTTTCCTAATCTTTCTGTTCAAGCGCCATCTAC,0.993 RPM ratio (pull-down/input)
21,GATGATTGTTCTCCCAGCTGATGAATTCGTAAGGTCGAGTAAACAAATTTTCCTAATCTTTCTGTTCAAGCGCCATCTAC,0.821 RPM ratio (pull-down/input)

row,Sequence,binding signal
1,GATGATTGTTCTCCCAGCTGATGAATTTGAGCTTTCGAGTAAACAAATTTTCCTAATCTTTCTGTTCAAGCGCCATCTAC,0.854 RPM ratio (pull-down/input)
2,GATGATTGTTCTCCCAGCTGATGAATTACTGCCTTCGAGTAAACAAATTTTCCTAATCTTTCTGTTCAAGCGCCATCTAC,0.946 RPM ratio (pull-down/input)
3,GATGATTGTTCTCCCAGCTGATGAATTCGCGCAGTCGAGTAAACAAATTTTCCTAATCTTTCTGTTCAAGCGCCATCTAC,0.818 RPM ratio (pull-down/input)
4,GATGATTGTTCTCCCAGCTGATGAATTTGATTGGTCGAGTAAACAAATTTTCCTAATCTTTCTGTTCAAGCGCCATCTAC,0.963 RPM ratio (pull-down/input)
5,GATGATTGTTCTCCCAGCTGATGAATTGGATCTGTCGAGTAAACAAATTTTCCTAATCTTTCTGTTCAAGCGCCATCTAC,0.896 RPM ratio (pull-down/input)
6,GATGATTGTTCTCCCAGCTGATGAATTAGGCCCATCGAGTAAACAAATTTTCCTAATCTTTCTGTTCAAGCGCCATCTAC,0.982 RPM ratio (pull-down/input)
7,GATGATTGTTCTCCCAGCTGATGAATTGTGGACATCGAGTAAACAAATTTTCCTAATCTTTCTGTTCAAGCGCCATCTAC,1.22 RPM ratio (pull-down/input)
8,GATGATTGTTCTCCCAGCTGATGAATTGAGGAGATCGAGTAAACAAATTTTCCTAATCTTTCTGTTCAAGCGCCATCTAC,0.793 RPM ratio (pull-down/input)
9,GATGATTGTTCTCCCAGCTGATGAATTGGGGGGATCGAGTAAACAAATTTTCCTAATCTTTCTGTTCAAGCGCCATCTAC,0.778 RPM ratio (pull-down/input)
10,GATGATTGTTCTCCCAGCTGATGAATTTGCCAGCTCGAGTAAACAAATTTTCCTAATCTTTCTGTTCAAGCGCCATCTAC,0.835 RPM ratio (pull-down/input)
11,GATGATTGTTCTCCCAGCTGATGAATTCTAATCGTCGAGTAAACAAATTTTCCTAATCTTTCTGTTCAAGCGCCATCTAC,0.825 RPM ratio (pull-down/input)
12,GATGATTGTTCTCCCAGCTGATGAATTCTAGGTGTCGAGTAAACAAATTTTCCTAATCTTTCTGTTCAAGCGCCATCTAC,0.883 RPM ratio (pull-down/input)
13,GATGATTGTTCTCCCAGCTGATGAATTTGTTGATTCGAGTAAACAAATTTTCCTAATCTTTCTGTTCAAGCGCCATCTAC,2.39 RPM ratio (pull-down/input)
14,GATGATTGTTCTCCCAGCTGATGAATTATACGGCTCGAGTAAACAAATTTTCCTAATCTTTCTGTTCAAGCGCCATCTAC,0.879 RPM ratio (pull-down/input)
15,GATGATTGTTCTCCCAGCTGATGAATTAGGCGAATCGAGTAAACAAATTTTCCTAATCTTTCTGTTCAAGCGCCATCTAC,0.966 RPM ratio (pull-down/input)
16,GATGATTGTTCTCCCAGCTGATGAATTGACGCTCTCGAGTAAACAAATTTTCCTAATCTTTCTGTTCAAGCGCCATCTAC,1.03 RPM ratio (pull-down/input)
17,GATGATTGTTCTCCCAGCTGATGAATTTGCATTTTCGAGTAAACAAATTTTCCTAATCTTTCTGTTCAAGCGCCATCTAC,1.61 RPM ratio (pull-down/input)
18,GATGATTGTTCTCCCAGCTGATGAATTAGCTTCATCGAGTAAACAAATTTTCCTAATCTTTCTGTTCAAGCGCCATCTAC,0.938 RPM ratio (pull-down/input)
19,GATGATTGTTCTCCCAGCTGATGAATTTATTACGTCGAGTAAACAAATTTTCCTAATCTTTCTGTTCAAGCGCCATCTAC,1.11 RPM ratio (pull-down/input)
20,GATGATTGTTCTCCCAGCTGATGAATTCCGTCTTTCGAGTAAACAAATTTTCCTAATCTTTCTGTTCAAGCGCCATCTAC,0.942 RPM ratio (pull-down/input)
21,GATGATTGTTCTCCCAGCTGATGAATTGTCCTTTTCGAGTAAACAAATTTTCCTAATCTTTCTGTTCAAGCGCCATCTAC,1.07 RPM ratio (pull-down/input)

row,Sequence,binding signal
1,GATGATTGTTCTCCCAGCTGATGAATTTCCCGCCTCGAGTAAACAAATTTTCCTAATCTTTCTGTTCAAGCGCCATCTAC,0.915 RPM ratio (pull-down/input)
2,GATGATTGTTCTCCCAGCTGATGAATTCTTGCCCTCGAGTAAACAAATTTTCCTAATCTTTCTGTTCAAGCGCCATCTAC,0.749 RPM ratio (pull-down/input)
3,GATGATTGTTCTCCCAGCTGATGAATTGTTTCACTCGAGTAAACAAATTTTCCTAATCTTTCTGTTCAAGCGCCATCTAC,1.15 RPM ratio (pull-down/input)
4,GATGATTGTTCTCCCAGCTGATGAATTCATCTCGTCGAGTAAACAAATTTTCCTAATCTTTCTGTTCAAGCGCCATCTAC,0.935 RPM ratio (pull-down/input)
5,GATGATTGTTCTCCCAGCTGATGAATTTTCCGAGTCGAGTAAACAAATTTTCCTAATCTTTCTGTTCAAGCGCCATCTAC,0.839 RPM ratio (pull-down/input)
6,GATGATTGTTCTCCCAGCTGATGAATTACGTGTGTCGAGTAAACAAATTTTCCTAATCTTTCTGTTCAAGCGCCATCTAC,1.14 RPM ratio (pull-down/input)
7,GATGATTGTTCTCCCAGCTGATGAATTTGAGCTCTCGAGTAAACAAATTTTCCTAATCTTTCTGTTCAAGCGCCATCTAC,0.775 RPM ratio (pull-down/input)
8,GATGATTGTTCTCCCAGCTGATGAATTATACCCCTCGAGTAAACAAATTTTCCTAATCTTTCTGTTCAAGCGCCATCTAC,0.871 RPM ratio (pull-down/input)
9,GATGATTGTTCTCCCAGCTGATGAATTTAAAAGCTCGAGTAAACAAATTTTCCTAATCTTTCTGTTCAAGCGCCATCTAC,0.909 RPM ratio (pull-down/input)
10,GATGATTGTTCTCCCAGCTGATGAATTGCTCCGATCGAGTAAACAAATTTTCCTAATCTTTCTGTTCAAGCGCCATCTAC,0.965 RPM ratio (pull-down/input)
11,GATGATTGTTCTCCCAGCTGATGAATTGTTGTAGTCGAGTAAACAAATTTTCCTAATCTTTCTGTTCAAGCGCCATCTAC,1.71 RPM ratio (pull-down/input)
12,GATGATTGTTCTCCCAGCTGATGAATTGAACGAGTCGAGTAAACAAATTTTCCTAATCTTTCTGTTCAAGCGCCATCTAC,0.837 RPM ratio (pull-down/input)
13,GATGATTGTTCTCCCAGCTGATGAATTACCTGACTCGAGTAAACAAATTTTCCTAATCTTTCTGTTCAAGCGCCATCTAC,0.916 RPM ratio (pull-down/input)
14,GATGATTGTTCTCCCAGCTGATGAATTATTGTATTCGAGTAAACAAATTTTCCTAATCTTTCTGTTCAAGCGCCATCTAC,1.99 RPM ratio (pull-down/input)
15,GATGATTGTTCTCCCAGCTGATGAATTACAACCGTCGAGTAAACAAATTTTCCTAATCTTTCTGTTCAAGCGCCATCTAC,1.18 RPM ratio (pull-down/input)
16,GATGATTGTTCTCCCAGCTGATGAATTGGAGAGGTCGAGTAAACAAATTTTCCTAATCTTTCTGTTCAAGCGCCATCTAC,0.733 RPM ratio (pull-down/input)
17,GATGATTGTTCTCCCAGCTGATGAATTCCGAGGATCGAGTAAACAAATTTTCCTAATCTTTCTGTTCAAGCGCCATCTAC,0.766 RPM ratio (pull-down/input)
18,GATGATTGTTCTCCCAGCTGATGAATTCGAATCTTCGAGTAAACAAATTTTCCTAATCTTTCTGTTCAAGCGCCATCTAC,0.84 RPM ratio (pull-down/input)
19,GATGATTGTTCTCCCAGCTGATGAATTCTCTAACTCGAGTAAACAAATTTTCCTAATCTTTCTGTTCAAGCGCCATCTAC,0.847 RPM ratio (pull-down/input)
20,GATGATTGTTCTCCCAGCTGATGAATTGCTTTCATCGAGTAAACAAATTTTCCTAATCTTTCTGTTCAAGCGCCATCTAC,1.13 RPM ratio (pull-down/input)
21,GATGATTGTTCTCCCAGCTGATGAATTACCCTGATCGAGTAAACAAATTTTCCTAATCTTTCTGTTCAAGCGCCATCTAC,0.896 RPM ratio (pull-down/input)
